Results from the supplement of paper PMC8728848.
Some of the results follow.

Columns and labels:
Assay in all cases: glycan array binding signal (z-score within array); higher = stronger binding
Conditions in all cases: glycan notation: IUPAC condensed, linker removed
[1] = target: Fuc(a1-2)[Gal(a1-3)]Gal(b1-4)GlcNAc(b1-2)Man(a1-3)[Fuc(a1-2)[Gal(a1-3)]Gal(b1-4)GlcNAc(b1-2)Man(a1-6)]Man(b1-4)GlcNAc(b1-4)GlcNAc
Method in brief: (§1)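 The binding signal is a Z-score computed within each array. Data were drawn from 3228 arrays in the Consortium for Functional Glycomics database, restricted to those with a known protein sequence. Scores were averaged over arrays of the same protein sequence at different concentrations or buffers, and over linkers, and negative values can be taken as non-binding.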

[2] = target: Fuc(a1-2)[Gal(a1-3)]Gal(b1-4)[Fuc(a1-3)]GlcNAc
Method in brief: as §1

[3] = target: Fuc(a1-2)[Gal(a1-4)]Gal(b1-4)GlcNAc
Method in brief: as §1

[4] = target: Fuc(a1-2)[GalNAc(a1-3)]Gal
Method in brief: as §1

[5] = target: Fuc(a1-2)[GalNAc(a1-3)]Gal(b1-3)GlcNAc
Method in brief: as §1

[6] = target: Fuc(a1-2)[GalNAc(a1-3)]Gal(b1-3)GlcNAc(b1-2)Man(a1-3)[Fuc(a1-2)[GalNAc(a1-3)]Gal(b1-3)GlcNAc(b1-2)Man(a1-6)]Man(b1-4)GlcNAc(b1-4)GlcNAc
Method in brief: as §1

[7] = target: Fuc(a1-2)[GalNAc(a1-3)]Gal(b1-4)Glc
Method in brief: as §1

[8] = target: Fuc(a1-2)[GalNAc(a1-3)]Gal(b1-4)GlcNAc
Method in brief: as §1

[9] = target: Fuc(a1-2)[GalNAc(a1-3)]Gal(b1-4)GlcNAc(b1-2)Man(a1-3)[GalNAc(a1-3)[Fuc(a1-2)]Gal(b1-4)GlcNAc(b1-2)Man(a1-6)]Man(b1-4)GlcNAc(b1-4)GlcNAc
Method in brief: as §1

[10] = target: Fuc(a1-2)[GalNAc(a1-3)]Gal(b1-4)GlcNAc(b1-3)Gal(b1-4)GlcNAc
Method in brief: as §1

[11] = target: Fuc(a1-2)[GalNAc(a1-3)]Gal(b1-4)GlcNAc(b1-3)Gal(b1-4)GlcNAc(b1-3)Gal(b1-4)GlcNAc
Method in brief: as §1

[12] = target: Fuc(a1-2)[GalNAc(a1-3)]Gal(b1-4)[Fuc(a1-3)]GlcNAc
Method in brief: as §1

[13] = target: Fuc(a1-2)[GalNAc(a1-4)]Gal(b1-4)GlcNAc
Method in brief: as §1

[14] = target: Fuc(a1-2)[GalNAc(b1-3)]Gal
Method in brief: as §1

Fuc(a1-3)GlcNAc = target: Fuc(a1-3)GlcNAc
Method in brief: as §1

[15] = target: Fuc(a1-3)[Gal(b1-4)]Glc6S
Method in brief: as §1

[16] = target: Fuc(a1-3)[Gal(b1-4)]GlcNAc
Method in brief: as §1

[17] = target: Fuc(a1-3)[Gal(b1-4)]GlcNAc(b1-2)Man(a1-3)[Fuc(a1-3)[Gal(b1-4)]GlcNAc(b1-2)Man(a1-6)]Man(b1-4)GlcNAc(b1-4)GlcNAc
Method in brief: as §1

[18] = target: Fuc(a1-3)[Gal(b1-4)]GlcNAc(b1-2)Man(a1-6)[Gal(b1-4)GlcNAc(b1-2)Man(a1-3)]Man(b1-4)GlcNAc(b1-4)GlcNAc
Method in brief: as §1

[19] = target: Fuc(a1-3)[Gal(b1-4)]GlcNAc(b1-3)Gal(b1-3)[Fuc(a1-4)]GlcNAc
Method in brief: as §1

[20] = target: Fuc(a1-3)[Gal(b1-4)]GlcNAc(b1-4)Gal(b1-4)[Fuc(a1-3)]GlcNAc
Method in brief: as §1

[21] = target: Fuc(a1-3)[Gal(b1-4)]GlcNAc(b1-4)Gal(b1-4)[Fuc(a1-3)]GlcNAc(b1-4)Gal(b1-4)[Fuc(a1-3)]GlcNAc
Method in brief: as §1

[22] = target: Fuc(a1-3)[Gal(b1-4)]GlcNAc6S
Method in brief: as §1

[23] = target: Fuc(a1-3)[Gal3S(b1-4)]Glc6S
Method in brief: as §1

[24] = target: Fuc(a1-3)[Gal3S(b1-4)]GlcNAc
Method in brief: as §1

[25] = target: Fuc(a1-3)[Gal3S(b1-4)]GlcNAc6S
Method in brief: as §1

[26] = target: Fuc(a1-3)[GalNAc(b1-4)]GlcNAc
Method in brief: as §1

[27] = target: Fuc(a1-3)[Neu5Ac(a2-3)]Gal(b1-4)GlcNAc(b1-3)GalNAc
Method in brief: as §1

Fuc(a1-4)GlcNAc = target: Fuc(a1-4)GlcNAc
Method in brief: as §1

Fuc(b1-3)GlcNAc = target: Fuc(b1-3)GlcNAc
Method in brief: as §1

Gal(a1-2)Gal = target: Gal(a1-2)Gal
Method in brief: as §1

Gal(a1-3)Gal = target: Gal(a1-3)Gal
Method in brief: as §1

Gal(a1-3)Gal(b1-3)GlcNAc = target: Gal(a1-3)Gal(b1-3)GlcNAc
Method in brief: as §1

Gal(a1-3)Gal(b1-4)Glc = target: Gal(a1-3)Gal(b1-4)Glc
Method in brief: as §1

Gal(a1-3)Gal(b1-4)GlcNAc = target: Gal(a1-3)Gal(b1-4)GlcNAc
Method in brief: as §1

[28] = target: Gal(a1-3)Gal(b1-4)[Fuc(a1-3)]GlcNAc
Method in brief: as §1

[29] = target: Gal(a1-3)Gal(b1-4)[Fuc(a1-3)]GlcNAc(b1-2)Man(a1-3)[Gal(a1-3)Gal(b1-4)[Fuc(a1-3)]GlcNAc(b1-2)Man(a1-6)]Man(b1-4)GlcNAc(b1-4)GlcNAc
Method in brief: as §1

B1: HHL-1 (Homo sapiens), P07306 (protein)
chain: TKEYQDLQHLDNEESDHHQLRKGPPPPQPLLQRLCSGPRLLLLSLGLSLLLLVVVCVIGSQNSQLQEELRGLRETFSNFTASTEAQVKGLSTQGGNVGRKMKSLESQLEKQQKDLSEDHSSLLLHVKQFVSDLRSLSCQMAALQGNGSERTCCPVNWVEHERSCYWFSRSGKAWADADNYCRLEDAHLVVVTSWEEQKFVQHHIGPVNTWMGLHDQNGPWKWVDGTDYETGFKNWRPEQPDDWYGHGLGGGEDCAHFTDDGRWNDDVCQRPYRWVCETELDKASQEPPLL
glycan array binding signal (z-score) [1]: -0.52
glycan array binding signal (z-score) [2]: -0.242
glycan array binding signal (z-score) [3]: -0.48
glycan array binding signal (z-score) [4]: -0.312
glycan array binding signal (z-score) [5]: -0.025
glycan array binding signal (z-score) [6]: -0.479
glycan array binding signal (z-score) [7]: -0.506
glycan array binding signal (z-score) [8]: -0.34
glycan array binding signal (z-score) [9]: -0.353
glycan array binding signal (z-score) [10]: -0.072
glycan array binding signal (z-score) [11]: -0.3
glycan array binding signal (z-score) [12]: -0.532
glycan array binding signal (z-score) [13]: 7.69
glycan array binding signal (z-score) [14]: 3.59
glycan array binding signal (z-score) (Fuc(a1-3)GlcNAc): -0.527
glycan array binding signal (z-score) [15]: -0.368
glycan array binding signal (z-score) [16]: -0.095
glycan array binding signal (z-score) [17]: 0.065
glycan array binding signal (z-score) [18]: -0.567
glycan array binding signal (z-score) [19]: -0.467
glycan array binding signal (z-score) [20]: -0.542
glycan array binding signal (z-score) [21]: 0.458
glycan array binding signal (z-score) [22]: -0.264
glycan array binding signal (z-score) [23]: 1.17
glycan array binding signal (z-score) [24]: -0.088
glycan array binding signal (z-score) [25]: -0.386
glycan array binding signal (z-score) [26]: -0.561
glycan array binding signal (z-score) [27]: 0.526
glycan array binding signal (z-score) (Fuc(a1-4)GlcNAc): -0.148
glycan array binding signal (z-score) (Fuc(b1-3)GlcNAc): -0.537
glycan array binding signal (z-score) (Gal(a1-2)Gal): 0.419
glycan array binding signal (z-score) (Gal(a1-3)Gal): -0.484
glycan array binding signal (z-score) (Gal(a1-3)Gal(b1-3)GlcNAc): -0.405
glycan array binding signal (z-score) (Gal(a1-3)Gal(b1-4)Glc): -0.17
glycan array binding signal (z-score) (Gal(a1-3)Gal(b1-4)GlcNAc): 0.407
glycan array binding signal (z-score) [28]: 0.42
glycan array binding signal (z-score) [29]: -0.369
